# “And” between values parts separate entries of the source, which are not always exact repeats. Equal entries are not always repeated. Where two headings read alike, the source gives them in different places.
# Columns and labels:
# in vitro [1] = conditions: dog, hepatocytes
# physchem [2] = assay: physchem
# in vivo [3] = conditions: both, beagle, dog, plasma
# [4] = minipig
# in vitro [5] = assay type: in vitro ADME; conditions: mouse, hepatocytes
# in vitro [6] = conditions: rat, hepatocytes
# [7] = from Cav(free) = 10 nM in mouse model, F assumed 0.4
# [8] = athymic mice
# [9] = system: SK-OV-3 human ovarian cancer xenografts; conditions: single 50 mg/kg po; estimated free tumor concentration
# in vitro [10] = conditions: human, hepatocytes
# Vasopressin V1A = molecular target: T1, Vasopressin V1A (Homo sapiens, UniProt P37288); assay: Cerep SafetyScreen-87; assay type: binding; conditions: n=2
# T1 construct: purchased Eurofins Cerep/Panlabs SafetyScreen-87
# [11] = assay type: in vitro ADME; conditions: male, CD1, mouse, microsomes, pH 7.4
# [12] = human
# [13] = Rat blood PK (Sprague-Dawley); conditions: for AUC: t = 24 h
# [14] = pH 1.6
# [15] = system: CYP1A2, 2A6, 2B6, 2C8, 2C9, 2C19, 2D6, 3A4; assay: in vitro; conditions: human, microsomes
# [16] = Plasma protein binding and blood-to-plasma ratio
# [17] = beagle dogs
# in vivo [18] = conditions: athymic, mouse, whole blood; for Tmax: po
# [19] = Plasma protein binding and blood-to-plasma ratio; remark: listed apart in the source
# Mouse blood PK (BALB/c) = conditions: for AUC: po 5 mg/kg, t = 24 h
# in vivo [20] = conditions: athymic, mouse, tumor, po, 50 mg/kg
# physchem [21] = conditions: pH 7.4
# T1 sequence (P37288 whole entry): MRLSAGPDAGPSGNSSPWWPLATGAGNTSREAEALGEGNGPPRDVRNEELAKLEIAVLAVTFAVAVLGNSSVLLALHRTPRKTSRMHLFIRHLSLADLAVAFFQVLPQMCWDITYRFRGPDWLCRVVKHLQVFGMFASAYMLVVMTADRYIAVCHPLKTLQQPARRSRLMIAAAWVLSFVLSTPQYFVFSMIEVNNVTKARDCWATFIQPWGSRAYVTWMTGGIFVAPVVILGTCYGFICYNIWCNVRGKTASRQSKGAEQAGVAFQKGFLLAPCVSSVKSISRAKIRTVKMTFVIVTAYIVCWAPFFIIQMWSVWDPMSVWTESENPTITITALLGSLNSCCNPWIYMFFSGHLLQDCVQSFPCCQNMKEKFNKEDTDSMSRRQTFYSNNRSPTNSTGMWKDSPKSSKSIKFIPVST
smiles,measurement,setting,value
"CCN1CCN(Cc2ccc3cc(C(=O)Nc4cc(NC(=O)c5ccc6c(c5)OCCO6)ccc4F)ccc3n2)CC1 [Compound 22, N-(5-(2,3-Dihydrobenzo[b][1,4]dioxine-6-carboxamido)-2-fluorophenyl)-2-((4-ethylpiperazin-1-yl)methyl)quinoline-6-carboxamide]",hepatocyte CLint,in vitro [1],31 µL/min/1e6 cells
same,solubility thermodynamic at 4 h,"physchem [2]; pH 6.5, Thermodynamic solubility FaSSIF (mean)",27 µg/mL
same,solubility thermodynamic at 4 h,"physchem [2]; pH 6.5, Thermodynamic solubility FeSSIF (mean)",34 µg/mL
same,Vd,"in vivo [3]; iv, 0.5 mg/kg",2.2 L/kg
same,bioavailability,"in vivo [3]; po, […]",9.1%
same,"Plasma, fup",[4]; 90% CI,0.11 (0.32-0.037)
same,"Blood, fub",[4]; fub = fup/B:P,0.069
same,"hepatocyte CLint at 1 h, 1 µM",in vitro [5],53 µL/min/1e6 cells
same,remaining at 0 h,in vitro [5],144%
same,hepatocyte CLint,in vitro [6],38 µL/min/1e6 cells
same,remaining at 0 h,in vitro [6],126%
same,Predicted Human Dose,[7],less than 210 mg/person/day
same,Free Cav^0–24h,[8]; 5 mg/kg iv,2.1 nM
same,iv Cltb,"[8]; 5 mg/kg iv, 90% CI",21 (24–18) mL/min/kg
same,Free Cav^0–24h,[8]; 5 mg/kg po,0.59 nM
same,Free Cav^0–24h,[8]; 17.5 mg/kg po,3.1 nM
same,Free Cav^0–24h,[8]; 35 mg/kg po,10 nM
same,Free Cav^0–24h,[8]; 50 mg/kg po,24 nM
same,iv CLu,[8]; CLtb/fub,3000 mL/min/kg
same,tumor-free Cmax,[9],21 nM
same,hepatocyte CLint,in vitro [10],9 µL/min/1e6 cells
same,remaining at 0 h,in vitro [10],139%
same,inhibition at 10 µM,Vasopressin V1A,20%
same,Pred. in vivo CLu from MLM,[11],58 mL/min/kg
same,"Plasma, fup",[12]; 90% CI,0.0037 (0.0052-0.0027)
same,"Blood, fub",[12]; fub = fup/B:P,0.0053
same,iv Cltb,"[13]; SD rats, iv",24 mL/min/kg
same,Free Cav^0–24h,"[13]; SD rats, po 5 mg/kg (Table 4)",3.7 nm
same,Free Cav^0–24h,"[13]; SD rats, po (Table S12)",3.7 nM
same,CLu,"[13]; SD rats, CLtb/fub",730 mL/min/kg
same,Vdu,"[13]; SD rats, Vss/fub",220 L/kg
same,Vd,"[13]; female, Sprague-Dawley (CD), rat, in vivo, iv",7.3 L/kg
same,Cmax,"[13]; female, Sprague-Dawley (CD), rat, in vivo, po, 5 mg/kg",240 nM
same,half-life at 24 h,"[13]; female, Sprague-Dawley, rat, in vivo, iv, 1 mg/kg",3.1 h
same,Tmax,"[13]; female, Sprague-Dawley, rat, in vivo, po, 5 mg/kg",6 h
same,AUC,"[13]; female, Sprague-Dawley, rat, in vivo, po, 5 mg/kg, AUCu^0–t, SD rats",0.086 µM·h
same,AUC,"[13]; female, Sprague-Dawley, rat, in vivo, po, 5 mg/kg, po AUC^0–t, SD rats",2.6 µM·h
same,Thermodynamic solubility FaSSGF,[14],1600 µM
same,IC50,[15],> 10 µM
same,fub,"[16]; Sprague Dawley rat blood, fub = fup/B:P",0.033
same,"Plasma, fup","[16]; Sprague Dawley rat, 90% CI",0.034 (0.041-0.029)
same,iv Cltb,[17]; iv 0.5 mg/kg,21 mL/min/kg
same,Free Cav^0–24h,[17]; po (Table S12),1.9 nM
same,Tmax,[17]; po […],2.0 h
same,Vdu,[17]; Vss/fub,16 L/kg
same,half-life at 24 h,"in vivo [18]; iv, 5 mg/kg",1.5 h
same,Tmax,in vivo [18]; 5 mg/kg,1.7 h
same,Tmax,in vivo [18]; 17.5 mg/kg,1.7 h
same,Tmax,in vivo [18]; 35 mg/kg,2 h
same,Tmax,in vivo [18]; 50 mg/kg,1.7 h
same,fub,"[19]; athymic mouse blood, fub = fup/B:P",0.0070
same,"Plasma, fup","[19]; athymic mouse, 90% CI",0.037 (0.044-0.031)
same,iv Cltb,"Mouse blood PK (BALB/c); BALB/c mice, iv 5 mg/kg (18: 1 mg/kg), 90% CI",10 mL/min/kg and 10 (10–9.7) mL/min/kg
same,Free Cav^0–24h,"Mouse blood PK (BALB/c); BALB/c mice, po 5 mg/kg (Table 4)",3.3 nm
same,Free Cav^0–24h,"Mouse blood PK (BALB/c); BALB/c mice, po, AUC^inf/24*fub",3.3 nM
same,CLu,"Mouse blood PK (BALB/c); BALB/c mice, CLtb/fub",830 mL/min/kg
same,Vdu,"Mouse blood PK (BALB/c); BALB/c mice, Vss/fub",160 L/kg
same,Vd,"Mouse blood PK (BALB/c); female, BALB/c, mouse, in vivo, iv",1.9 L/kg
same,half-life at 24 h,"Mouse blood PK (BALB/c); female, BALB/c, mouse, in vivo, iv, 5 mg/kg",4 h
same,Tmax,"Mouse blood PK (BALB/c); female, BALB/c, mouse, in vivo, po, 5 mg/kg",2 h
same,AUC,"Mouse blood PK (BALB/c); female, BALB/c, mouse, in vivo, po, 5 mg/kg, AUCu^0–t, BALB/c mice",0.072 µM·h
same,AUC,"Mouse blood PK (BALB/c); female, BALB/c, mouse, in vivo, po, 5 mg/kg, po AUC^0–t, BALB/c mice",6 µM·h
same,Tmax,in vivo [20],6 h
same,chromatographic logD,physchem [21],1.7
same,"Plasma, fup","beagle dog (male), 90% CI",0.32 (0.40-0.25)
same,fub,"beagle dog blood, fub = fup/B:P",0.14
